# Laboratory results as given in the supplement of paper PMC3334620.
# In all, about 33,000 sequences were measured (“E-score (-0.5 to 0.5)”: median about -0.021, highest 2% from about 0.32 on). The list shows a part of the results.
# Target: T1, Zap1 (UniProt P47043)
# T1 sequence: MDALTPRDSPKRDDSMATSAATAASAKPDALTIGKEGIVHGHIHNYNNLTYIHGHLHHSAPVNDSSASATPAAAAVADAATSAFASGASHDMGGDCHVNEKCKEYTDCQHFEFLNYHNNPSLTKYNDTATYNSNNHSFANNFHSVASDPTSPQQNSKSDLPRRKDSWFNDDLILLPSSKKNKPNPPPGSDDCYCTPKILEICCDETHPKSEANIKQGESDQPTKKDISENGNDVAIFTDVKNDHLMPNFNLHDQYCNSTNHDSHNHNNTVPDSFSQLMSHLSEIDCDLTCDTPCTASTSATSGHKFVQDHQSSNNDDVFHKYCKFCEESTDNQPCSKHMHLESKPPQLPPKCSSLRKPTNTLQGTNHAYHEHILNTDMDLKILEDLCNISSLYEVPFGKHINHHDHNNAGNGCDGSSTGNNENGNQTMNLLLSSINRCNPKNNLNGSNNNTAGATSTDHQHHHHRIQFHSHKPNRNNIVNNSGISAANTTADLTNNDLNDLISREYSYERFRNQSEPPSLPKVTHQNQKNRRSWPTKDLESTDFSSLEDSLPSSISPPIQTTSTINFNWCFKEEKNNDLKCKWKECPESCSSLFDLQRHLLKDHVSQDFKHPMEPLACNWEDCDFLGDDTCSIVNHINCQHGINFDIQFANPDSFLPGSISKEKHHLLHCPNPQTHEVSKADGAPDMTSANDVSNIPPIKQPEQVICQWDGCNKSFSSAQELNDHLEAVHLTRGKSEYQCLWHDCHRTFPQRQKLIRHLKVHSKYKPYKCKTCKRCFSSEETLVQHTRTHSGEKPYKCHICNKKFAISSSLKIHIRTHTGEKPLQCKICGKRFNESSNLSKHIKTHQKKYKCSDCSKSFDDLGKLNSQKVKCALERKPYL
# Assay: PBM E-score (8-mer binding enrichment) (E-score (-0.5 to 0.5)); higher = stronger / more preferred TF binding; most listed sequences are background and not binding sites
# Details: protein concentration: 200 nM; construct: GST-full length
# Outline: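 Using PURExpress in vitro transcription/translation, GST-tagged yeast transcription factors were made in full-length or DNA-binding-domain form. These were applied at about 100-200 nM to double-stranded universal all-10-mer Agilent arrays, and bound protein was detected with fluorescent anti-GST. Scans were normalised with masliner before the Universal PBM Analysis Suite assigned E-scores to ungapped eight-base words pooled with their reverse complements.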
row,Sequence,PBM E-score
1,CGATTACA,-0.0321
2,ATGCCAAA,0.0814
3,ATCCTGAA,0.0947
4,AGACATCG,-0.23
5,ATCGTAAA,0.0638
6,GGCGTGTA,-0.258
7,CTGGGTGA,0.0907
8,GCAACGCA,-0.244
9,CGGTGTCC,0.071
10,ACTTTTTA,0.113
11,TGCCCTAA,-0.171
12,AAGATAAC,0.192
13,ACGTAGCT,-0.0685
14,GCAGCGCC,-0.171
15,GCATAAAC,0.109
16,CGGGCCAA,-0.228
17,CACTAAGA,0.0936
18,ATAGCTCA,-0.0466
19,AACATAGT,-0.0372
20,ATCCTGTC,-0.0221
21,TCAGACGA,-0.12
22,AGCTGATA,-0.146
23,AAAAAGAC,0.214
24,CTAAGTAC,0.0484
25,CACATCAC,-0.0433

row,Sequence,PBM E-score
1,AAGAGGAC,-0.154
2,TCACCCGA,0.114
3,AAGAGCGG,-0.22
4,AGAGCAAT,-0.181
5,CACCTTTC,0.0949
6,GACATTGC,-0.24
7,ATATTTAA,0.226
8,CGGTACTC,0.0175
9,ATGGTCCC,-0.0451
10,TCCTAGCA,-0.175
11,CCGAATGC,-0.165
12,TTCAAGAA,0.184
13,GGTTGTAA,0.278
14,CGGGCCGA,-0.105
15,GCGGGGAA,-0.0256
16,AGAAAAAG,0.0427
17,CTGCCAAG,-0.158
18,CCTTCCCG,-0.113
19,GAAGGCCC,-0.059
20,AGTCAGGA,-0.205
21,AGGGAAGC,-0.273
22,TCGAGAAA,0.0623
23,ACATAGCA,-0.241
24,CTATTTAA,0.0132
25,ACTGCTCG,-0.159

row,Sequence,PBM E-score
1,TAGGAATA,0.112
2,ATCGCGGG,0.0185
3,AGTCTGAG,-0.16
4,AGTTAAGG,0.103
5,CTACGTGC,-0.216
6,ATTTTATG,0.112
7,GCAGAAGA,-0.0636
8,AGACATAA,-0.0444
9,CCAGTACG,-0.0816
10,CCGTATAG,0.051
11,GTCTTTAA,0.0536
12,AGTCCATC,-0.239
13,TATCGGAA,0.143
14,GTCGCTTA,-0.141
15,GTGCCCTA,-0.314
16,AATCCCAG,-0.0283
17,CTAGCGAC,-0.0087
18,CGTCGCGA,0.00596
19,AACATGAC,0.159
20,ACCTGGCT,-0.0511
21,GAGTACGA,-0.0801
22,GCCATGGA,0.0158
23,TCGGCTCA,-0.0173
24,GCAGTATA,0.00974
25,CACTCTGC,-0.146

row,Sequence,PBM E-score
1,CGGGGGCC,-0.229
2,GGTCGGTA,0.156
3,AGACTGAT,-0.223
4,CGTCAAGC,-0.272
5,GTCCGTGA,0.0369
6,AATGTTCA,0.0698
7,CAAGAAGG,0.151
8,GTGGACCA,0.00386
9,CGTTTGTC,0.051
10,GATTGCCC,-0.247
11,CTAACCAC,0.325
12,ACTGCTTC,-0.175
13,AGGACTAG,-0.00879
14,GATGCACC,-0.179
15,ATCATTTC,0.146
16,ATACAACG,0.033
17,AGTACAAG,-0.0696
18,AACACCAA,0.158
19,CGCGTCGA,-0.0497
20,ACAGCACG,-0.0683
21,AAAGGCAC,0.0185
22,CTAAAACC,0.279
23,CGGCCTAG,-0.048
24,ACTACTCA,0.0254
25,ACGTACGT,-0.268

row,Sequence,PBM E-score
1,ACCGAGCG,-0.0704
2,ATTAAAGA,0.245
3,ATGTTTGC,0.0328
4,TCGTTCCA,-0.19
5,AGTACTGG,-0.141
6,ACATCGTA,-0.127
7,ACATACGA,0.0717
8,TCCGTGCA,-0.0954
9,GTGATGGA,-0.0707
10,TAGTCCAA,-0.09
11,ACACAGCG,-0.0243
12,AGGCCTGG,-0.232
13,CGTTCCAC,-0.356
14,CAGACTAC,-0.189
15,CTTAATTA,0.0915
16,CAACCTTA,0.286
17,ATAGACTC,-0.159
18,GAGTAGCA,-0.157
19,CAAGCCAA,-0.0144
20,CATTTTCA,0.167
21,ACACTCCC,-0.357
22,GGTCCGTA,-0.00645
23,CAGGAATA,-0.00899
24,ATTTAATC,0.161
25,CCAAGTTA,0.0627

row,Sequence,PBM E-score
1,TTCCGAAA,0.0636
2,ATCATAAA,0.0839
3,CGGACCTA,0.00172
4,GGAATAAA,0.111
5,GGGTCCAA,-0.0225
6,TAAGTACA,0.096
7,AATGGCCT,0.0949
8,GGATGGAA,-0.126
9,ACAGCGTC,-0.0965
10,AGGAGCCT,-0.208
11,CACTGGAG,-0.202
12,ATCAGCAG,-0.0531
13,CGGACGCC,-0.0778
14,ACATCCGG,0.0431
15,GCTTGGGA,-0.205
16,AATTTTAA,0.188
17,GGTTCGCA,-0.115
18,CTGGCTTA,-0.205
19,GGTAAAGA,0.0277
20,CTGTACCC,0.191
21,ATTAAATG,0.175
22,AATGAGTA,0.0768
23,ATAGCCAA,0.0173
24,GCGGTGCA,-0.304
25,CGTCTGAA,-0.151

row,Sequence,PBM E-score
1,ACCTTCCG,0.152
2,AAATGCCC,-0.125
3,CTATTAGC,0.0361
4,ACGATTTG,-0.101
5,AACTGGGT,0.0979
6,AATTTAAG,0.0378
7,AATTCCAG,0.0209
8,CATCCTCA,-0.0086
9,CAGTGATA,0.0546
10,AAAAGCTT,0.0343
11,CAGTACAA,0.0427
12,ACATGTCC,0.136
13,AATCTCAC,-0.102
14,GTACGGGA,-0.143
15,CCATTGGG,-0.0809
16,GGCAGTAC,-0.171
17,ATTTCAAG,0.102
18,GCCGGTAC,0.00379
19,AAGAGAGA,-0.113
20,GCGCATCC,-0.122
21,GTATACAA,0.0691
22,GGGGAGTA,-0.198
